Results: the supplement of paper PMC12217912
The list shows a part of the results. The full chains were built here from the parent and the listed change. Values near 0.05 are background.

B1: TEV protease; numbered along this chain (parent)
chain: MGESLFKGPRDYNPISSSICHLTNESDGHTTSLYGIGFGPFIITNKHLFRRNNGTLVVQSLHGVFKVKDTTTLQQHLVDGRDMIIIRMPKDFPPFPQKLKFREPQREERICLVTTNFQTKSMSSMVSDTSCTFPSGDGIFWKHWIQTKDGQCGSPLVSTRDGFIVGIHSASNFTNTNNYFTSVPKNFMELLTNQEAQQWVSGWRLNADSVLWGGHKVFMVKPEEPFQPVKEATQL

Variants of: B1
Assay: raw area under fraction-flipped curve 0-4 h after induction (AUC4h, not background-subtracted), DNA-recorder readout of cleavage of the substrate (dimensionless); higher = more cleavage of the substrate by the protease variant
Details: temperature: 34 °C; time window: 0-4 h after rhamnose induction
Protocol: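 In vivo DNA recorder in E. coli TOP10(DE3) ΔrhaA at 34 °C. Each TEVp single-site mutant (parent TEVp 0) is paired with a single-site variant of the 7-mer TEVs (canonical ENLYFQ|S). The substrate sits between flexible linkers in a Bxb1-sfGFP-TEVs-SsrA fusion, so cleavage stabilises Bxb1 and speeds flipping of a recombination array, read by NGS. The value is the raw area under the fraction-flipped curve over 0-4 h after rhamnose induction (AUC4h), with ≥20 reads per time point. It is not background-subtracted; inactive controls average about 0.047.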
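Also: Bxb1 expression induced with 0.2% (w/v) L-rhamnose at OD600 near 0.5, cultures sampled hourly, flipped fraction per protease–substrate barcode pair counted by paired-end Illumina sequencing.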

Row | Variant | area with substrate EALYFQS | area with substrate ECLYFQS | area with substrate EDLYFQS | area with substrate EELYFQS | area with substrate EHLYFQS | area with substrate EILYFQS | area with substrate EKLYFQS | area with substrate ELLYFQS | area with substrate EMLYFQS | area with substrate EPLYFQS | area with substrate EQLYFQS | area with substrate ERLYFQS | area with substrate ESLYFQS | area with substrate EVLYFQS | area with substrate EWLYFQS | area with substrate EYLYFQS | area with substrate EGLYFQS | area with substrate ETLYFQS | area with substrate EFLYFQS
1 | S169Q | 0.049 | 0.0537 | 0.0453 | 0.0755 | 0.0588 | 0.0565 | 0.0581 | 0.0614 | 0.0458 | 0.0588 | 0.0501 | 0.0588 | 0.0661 | 0.0632 | 0.0544 | 0.0572 | – | – | –
2 | L205R | 0.0658 | 0.059 | – | – | 0.0682 | 0.0589 | – | – | 0.0634 | – | 0.0647 | 0.0616 | 0.0737 | 0.0648 | 0.0531 | 0.0528 | 0.0551 | 0.059 | –
3 | T147L | 0.0863 | 0.0955 | 0.0918 | 0.113 | 0.0659 | 0.0832 | – | 0.0706 | – | – | 0.0814 | 0.0741 | 0.092 | – | – | – | – | 0.105 | –
4 | A196T | 0.0801 | 0.0708 | 0.12 | – | 0.103 | 0.0697 | – | – | 0.13 | – | 0.108 | 0.047 | 0.0506 | – | 0.0889 | 0.0038 | – | – | 0.0852
5 | A196Y | 0.144 | – | 0.0657 | 0.112 | 0.126 | 0.0834 | 0.161 | 0.092 | 0.118 | – | 0.123 | 0.0916 | 0.101 | 0.0976 | – | – | – | – | –
6 | Q194V | 0.122 | 0.174 | – | – | – | 0.121 | 0.172 | – | – | – | 0.111 | – | 0.0974 | – | 0.112 | – | – | – | –
7 | Q194K | 0.0948 | 0.101 | 0.116 | 0.128 | – | 0.0947 | 0.115 | 0.0823 | 0.111 | 0.0788 | 0.13 | 0.0595 | 0.16 | 0.0929 | 0.0995 | 0.169 | – | 0.176 | –
8 | Q194M | 0.111 | 0.0814 | – | – | – | 0.0916 | 0.105 | 0.102 | – | – | 0.108 | 0.11 | 0.0921 | 0.0932 | – | 0.0957 | – | – | 0.104
9 | K185W | 0.17 | 0.107 | 0.115 | 0.116 | 0.15 | 0.0938 | 0.111 | 0.079 | 0.102 | 0.141 | 0.111 | 0.111 | 0.112 | 0.143 | 0.0815 | – | – | – | 0.0951
10 | K185Q | 0.126 | 0.0921 | 0.128 | – | 0.0879 | 0.0976 | 0.0949 | 0.0911 | 0.126 | – | – | 0.102 | – | 0.106 | 0.0883 | – | – | 0.0971 | –
11 | F187L | 0.111 | 0.0959 | 0.139 | – | 0.126 | 0.0735 | 0.116 | 0.105 | 0.15 | 0.101 | 0.116 | 0.108 | 0.101 | 0.103 | – | – | 0.0832 | 0.115 | 0.0885
12 | F187W | 0.0782 | 0.0768 | 0.0887 | 0.0784 | – | 0.0714 | 0.0824 | – | 0.0794 | 0.0845 | 0.0634 | 0.0822 | 0.0895 | 0.0754 | – | – | 0.0837 | – | –
13 | S171D | 0.0471 | – | 0.0647 | 0.056 | 0.0592 | 0.0499 | 0.0677 | 0.063 | 0.0567 | 0.0317 | 0.0595 | 0.066 | 0.0646 | 0.0524 | – | – | 0.0475 | – | –
